# The list shows a part of the results.
# Assays:
# Assay in all cases: glycan array binding signal (z-score within array); higher = stronger binding
# Conditions in all cases: glycan notation: IUPAC condensed, linker removed
# [1] = target: Gal(b1-4)GlcNAc(b1-3)Gal(b1-4)GlcNAc(b1-2)Man(a1-3)[Gal(b1-4)GlcNAc(b1-3)Gal(b1-4)GlcNAc(b1-2)Man(a1-6)]Man(b1-4)GlcNAc(b1-4)[Fuc(a1-6)]GlcNAc
# Summary of the method: (§1)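 Arrays were curated from the Consortium for Functional Glycomics database, 3228 in total, and kept only where the protein sequence was available. Binding is expressed as a within-array Z-score. This score was averaged across arrays of the same protein sequence at different concentrations or buffers and across linkers, and negative values can be read as non-binding.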
# [2] = target: Gal(b1-4)GlcNAc(b1-3)Gal(b1-4)GlcNAc(b1-2)[Gal(b1-4)GlcNAc(b1-3)Gal(b1-4)GlcNAc(b1-6)]Man(a1-6)[Gal(b1-4)GlcNAc(b1-3)Gal(b1-4)GlcNAc(b1-2)Man(a1-3)]Man(b1-4)GlcNAc(b1-4)GlcNAc
# Summary of the method: as §1
# [3] = target: Gal(b1-4)GlcNAc(b1-3)Gal(b1-4)GlcNAc(b1-2)[Gal(b1-4)GlcNAc(b1-3)Gal(b1-4)GlcNAc(b1-6)]Man(a1-6)[Gal(b1-4)GlcNAc(b1-3)Gal(b1-4)GlcNAc(b1-2)Man(a1-3)]Man(b1-4)GlcNAc(b1-4)[Fuc(a1-6)]GlcNAc
# Summary of the method: as §1
# [4] = target: Gal(b1-4)GlcNAc(b1-3)Gal(b1-4)GlcNAc(b1-3)Gal(b1-4)GlcNAc
# Summary of the method: as §1
# [5] = target: Gal(b1-4)GlcNAc(b1-3)Gal(b1-4)GlcNAc(b1-3)Gal(b1-4)GlcNAc(b1-2)Man(a1-3)[Gal(b1-4)GlcNAc(b1-3)Gal(b1-4)GlcNAc(b1-3)Gal(b1-4)GlcNAc(b1-2)Man(a1-6)]Man(b1-4)GlcNAc(b1-4)GlcNAc
# Summary of the method: as §1
# [6] = target: Gal(b1-4)GlcNAc(b1-3)Gal(b1-4)GlcNAc(b1-3)Gal(b1-4)GlcNAc(b1-2)Man(a1-3)[Gal(b1-4)GlcNAc(b1-3)Gal(b1-4)GlcNAc(b1-3)Gal(b1-4)GlcNAc(b1-2)Man(a1-6)]Man(b1-4)GlcNAc(b1-4)[Fuc(a1-6)]GlcNAc
# Summary of the method: as §1
# [7] = target: Gal(b1-4)GlcNAc(b1-3)Gal(b1-4)GlcNAc(b1-3)Gal(b1-4)GlcNAc(b1-2)[Gal(b1-4)GlcNAc(b1-3)Gal(b1-4)GlcNAc(b1-3)Gal(b1-4)GlcNAc(b1-6)]Man(a1-6)[Gal(b1-4)GlcNAc(b1-3)Gal(b1-4)GlcNAc(b1-3)Gal(b1-4)GlcNAc(b1-2)Man(a1-3)]Man(b1-4)GlcNAc(b1-4)[Fuc(a1-6)]GlcNAc
# Summary of the method: as §1
# [8] = target: Gal(b1-4)GlcNAc(b1-3)Gal(b1-4)GlcNAc(b1-3)Gal(b1-4)GlcNAc(b1-3)Gal(b1-4)GlcNAc(b1-2)Man(a1-3)[Gal(b1-4)GlcNAc(b1-3)Gal(b1-4)GlcNAc(b1-3)Gal(b1-4)GlcNAc(b1-3)Gal(b1-4)GlcNAc(b1-2)Man(a1-6)]Man(b1-4)GlcNAc(b1-4)GlcNAc
# Summary of the method: as §1
# [9] = target: Gal(b1-4)GlcNAc(b1-3)Gal(b1-4)GlcNAc(b1-3)Gal(b1-4)GlcNAc(b1-3)Gal(b1-4)GlcNAc(b1-2)Man(a1-3)[Gal(b1-4)GlcNAc(b1-3)Gal(b1-4)GlcNAc(b1-3)Gal(b1-4)GlcNAc(b1-3)Gal(b1-4)GlcNAc(b1-2)Man(a1-6)]Man(b1-4)GlcNAc(b1-4)[Fuc(a1-6)]GlcNAc
# Summary of the method: as §1
# [10] = target: Gal(b1-4)GlcNAc(b1-3)Gal(b1-4)GlcNAc(b1-3)Gal(b1-4)GlcNAc(b1-3)Gal(b1-4)GlcNAc(b1-2)[Gal(b1-4)GlcNAc(b1-3)Gal(b1-4)GlcNAc(b1-3)Gal(b1-4)GlcNAc(b1-3)Gal(b1-4)GlcNAc(b1-6)]Man(a1-6)[Gal(b1-4)GlcNAc(b1-3)Gal(b1-4)GlcNAc(b1-3)Gal(b1-4)GlcNAc(b1-3)Gal(b1-4)GlcNAc(b1-2)Man(a1-3)]Man(b1-4)GlcNAc(b1-4)[Fuc(a1-6)]GlcNAc
# Summary of the method: as §1
# [11] = target: Gal(b1-4)GlcNAc(b1-3)Gal(b1-4)GlcNAc(b1-3)Gal(b1-4)GlcNAc(b1-3)Gal(b1-4)GlcNAc(b1-3)Gal(b1-4)GlcNAc(b1-2)Man(a1-3)[Gal(b1-4)GlcNAc(b1-3)Gal(b1-4)GlcNAc(b1-3)Gal(b1-4)GlcNAc(b1-3)Gal(b1-4)GlcNAc(b1-3)Gal(b1-4)GlcNAc(b1-2)Man(a1-6)]Man(b1-4)GlcNAc(b1-4)GlcNAc
# Summary of the method: as §1
# [12] = target: Gal(b1-4)GlcNAc(b1-3)Gal(b1-4)GlcNAc(b1-3)Gal(b1-4)GlcNAc(b1-3)Gal(b1-4)GlcNAc(b1-3)Gal(b1-4)GlcNAc(b1-2)Man(a1-3)[Gal(b1-4)GlcNAc(b1-3)Gal(b1-4)GlcNAc(b1-3)Gal(b1-4)GlcNAc(b1-3)Gal(b1-4)GlcNAc(b1-3)Gal(b1-4)GlcNAc(b1-2)Man(a1-6)]Man(b1-4)GlcNAc(b1-4)[Fuc(a1-6)]GlcNAc
# Summary of the method: as §1
# [13] = target: Gal(b1-4)GlcNAc(b1-3)Gal(b1-4)GlcNAc(b1-3)Gal(b1-4)GlcNAc(b1-3)Gal(b1-4)GlcNAc(b1-3)Gal(b1-4)GlcNAc(b1-2)[Gal(b1-4)GlcNAc(b1-3)Gal(b1-4)GlcNAc(b1-3)Gal(b1-4)GlcNAc(b1-3)Gal(b1-4)GlcNAc(b1-3)Gal(b1-4)GlcNAc(b1-6)]Man(a1-6)[Gal(b1-4)GlcNAc(b1-3)Gal(b1-4)GlcNAc(b1-3)Gal(b1-4)GlcNAc(b1-3)Gal(b1-4)GlcNAc(b1-3)Gal(b1-4)GlcNAc(b1-2)Man(a1-3)]Man(b1-4)GlcNAc(b1-4)[Fuc(a1-6)]GlcNAc
# Summary of the method: as §1
# [14] = target: Gal(b1-4)GlcNAc(b1-3)Gal(b1-4)GlcNAc(b1-3)Gal(b1-4)GlcNAc(b1-3)Gal(b1-4)GlcNAc(b1-3)Gal(b1-4)GlcNAc(b1-3)Gal(b1-4)GlcNAc(b1-2)Man(a1-3)[Gal(b1-4)GlcNAc(b1-3)Gal(b1-4)GlcNAc(b1-3)Gal(b1-4)GlcNAc(b1-3)Gal(b1-4)GlcNAc(b1-3)Gal(b1-4)GlcNAc(b1-3)Gal(b1-4)GlcNAc(b1-2)Man(a1-6)]Man(b1-4)GlcNAc(b1-4)GlcNAc
# Summary of the method: as §1
# [15] = target: Gal(b1-4)GlcNAc(b1-3)Gal(b1-4)GlcNAc(b1-3)GalNAc
# Summary of the method: as §1
# [16] = target: Gal(b1-4)GlcNAc(b1-3)Gal(b1-4)GlcNAc(b1-3)[Gal(b1-4)GlcNAc(b1-3)Gal(b1-4)GlcNAc(b1-6)]GalNAc
# Summary of the method: as §1
# [17] = target: Gal(b1-4)GlcNAc(b1-3)Gal(b1-4)GlcNAc(b1-6)[Gal(b1-3)]GalNAc
# Summary of the method: as §1
# [18] = target: Gal(b1-4)GlcNAc(b1-3)Gal(b1-4)[Fuc(a1-3)]GlcNAc(b1-3)Gal(b1-4)[Fuc(a1-3)]GlcNAc
# Summary of the method: as §1
# [19] = target: Gal(b1-4)GlcNAc(b1-3)GalNAc
# Summary of the method: as §1
# [20] = target: Gal(b1-4)GlcNAc(b1-3)[Fuc(a1-3)GlcNAc(b1-6)]Gal(b1-4)Glc
# Summary of the method: as §1
# [21] = target: Gal(b1-4)GlcNAc(b1-3)[Gal(b1-4)GlcNAc(b1-6)]Gal(b1-4)GlcNAc
# Summary of the method: as §1
# [22] = target: Gal(b1-4)GlcNAc(b1-3)[GlcNAc(b1-6)]Gal(b1-4)GlcNAc
# Summary of the method: as §1
binder,measurement,setting,value
"EPL1 (Trichoderma atroviride), A0PCX2 (protein) MQLSNLFKLALFTAAVSADTVSYDTGYDDASRSLTVVSCSDGTNGLITRYHWQTQGQIPRFPYIGGAQAVAGWNSPNCGTCWKLTYSGKTIYVLAIDHTAAGFNIGLDAMNALTNGNAVALGRVSATASQVAVSNCGL",glycan array binding signal (z-score),[1],0.138
same,glycan array binding signal (z-score),[2],-0.13
same,glycan array binding signal (z-score),[3],0.124
same,glycan array binding signal (z-score),[4],0.071
same,glycan array binding signal (z-score),[5],0.34
same,glycan array binding signal (z-score),[6],-0.02
same,glycan array binding signal (z-score),[7],0.431
same,glycan array binding signal (z-score),[8],-0.381
same,glycan array binding signal (z-score),[9],0.094
same,glycan array binding signal (z-score),[10],0.694
same,glycan array binding signal (z-score),[11],0.259
same,glycan array binding signal (z-score),[12],-0.017
same,glycan array binding signal (z-score),[13],0.457
same,glycan array binding signal (z-score),[14],0.216
same,glycan array binding signal (z-score),[15],0.049
same,glycan array binding signal (z-score),[16],-0.344
same,glycan array binding signal (z-score),[17],-0.113
same,glycan array binding signal (z-score),[18],0.129
same,glycan array binding signal (z-score),[19],-0.325
same,glycan array binding signal (z-score),[20],0.282
same,glycan array binding signal (z-score),[21],0.164
same,glycan array binding signal (z-score),[22],0.635

# Reference: the supplement of paper PMC8728848
